# Test results reported in ChEMBL document CHEMBL1157539, “Thousands of chemical starting points for antimalarial lead identification” (Nature, 2010).
# Over roughly 13,000 compounds, “IFI” has its median near 4; the highest 2% begin near 17. Some of the results follow.
# Assay: GSK_TCMDC: Inhibition Frequency Index (IFI). The number of non-kinase HTS assays where a compound showed > 50 % inhibition, expressed as a percentage of the number of such assays in which the compound was tested (-0 is zero)
# Assay type: functional
row,Compound,IFI [%]
1,O=[N+]([O-])c1ccccc1C=NN=c1c2c([nH]c3ccccc13)CCCC2,4.32
2,O=C(c1ccc([N+](=O)[O-])o1)N1CCN(c2nc3c(Cl)cccc3s2)CC1,5.45
3,COc1ccccc1CCNc1nc(C)cc(NCCC(=O)NCCOc2ccccc2)n1,10.5
4,O=C(Nc1cccc(C2=NCCCN2)c1)Nc1cccc(C2=NCCCN2)c1,0.74
5,COc1cc(NCC(O)CNc2cc(OC)c3ccccc3n2)nc2ccccc12,8.51
6,O=C(Nc1ccccc1Oc1ccccc1)NC1CCN(c2ccnc3cc(Cl)ccc23)C1 (stereo unspecified),4.62
7,COc1ccc(CCC(C)(C)NCC(O)c2cccc(C(F)(F)F)c2)cc1 (stereo unspecified),5.63
8,Cc1cccc(CN2CCCN(Cc3ccc(C(=O)Nc4ccc(C)c(F)c4)cc3)CC2)c1,7.09
9,Cc1cccc2nc(-c3ccc(-c4cccc(CNCCc5ccncc5)c4)s3)[nH]c12,5
10,CC(C)NCc1ccc(-c2ccc(NC(=O)c3cccc(Cl)c3)cc2)cc1,13
11,Clc1ccc2c(NN=Cc3cccs3)ccnc2c1,-0
12,O=C(NCC1CCN(Cc2cccc(C(F)(F)F)c2)C1)c1cc(-c2cccc(F)c2)cs1 (stereo unspecified),3.77
13,NCc1ccc(-c2ccccc2CNC2CCN(Cc3ccccc3)CC2)cc1,6.62
14,Cc1cc(N)nc2ccc(-c3ccc(CN)cc3)cc12,4.83
15,COc1ccc(NC(=O)/C=C/c2ccccc2Cl)cc1OCCN1CCC(N(C)C)CC1,0.7
16,COc1ccc(-n2ccnc2)cc1CNC1CCN(CC2Cn3c(=O)ccc4ccc(F)c2c43)CC1 (stereo unspecified),1.85
17,COc1cc2ccccc2cc1CCNCCCCNCCc1cc2ccccc2cc1OC,14.8
18,CCOC(=O)CNC(=O)c1cc(=O)c2ccccc2o1,1.47
19,COc1cc2c(cc1NC(=O)CN1CCN(C(=O)c3ccco3)CC1)oc1ccccc12,3.42
20,Cc1cccc(-c2nc3[nH]c(=O)cc(NC(=O)C(C)C)n3n2)c1,0
21,CC(C)NCc1ccc(-c2ccc(CN3CCCC(c4ccccc4)C3)cc2)c(C(=O)NCC2CCCCC2)c1 (stereo unspecified),7.09
22,CCOc1ccc(CCCON2C(=N)N=C(N)NC2(C)C)cc1,3.52
23,Cc1ccc(CON2C(N)=NC(N)=NC2(C)C)c(Cl)c1.Cc1ccc(CON2C(N)=NC(N)=NC2(C)C)cc1Cl,2.88

row,Compound,IFI [%]
1,Cc1nc(C)c(C2CCC(c3ccc(Cl)cc3)CC2)c(O)c1Cl (stereo unspecified),7.97
2,Cc1cc(Nc2ccccc2)nc(NCCOc2ccccc2)n1,3.68
3,COc1ccc(NC(=O)[C@H](Cc2ccccc2)Nc2cc(C)nc(NCCOc3ccccc3)n2)cc1,4.65
4,CCCC1(NC[C@@H](O)[C@H](Cc2ccccc2)NC(=O)c2cc(NCC)cc(N3CCCCS3(=O)=O)c2)CCCC1,1.45
5,COc1ccc(NC(=O)Nc2ccc(C)c(-c3ccc(C(=O)NCCN4CCCC4)cc3)c2)cc1,0
6,CN1CCN(CCNc2c3ccccc3nc3ccc4ccccc4c23)CC1,8.45
7,COC(=O)c1cccc(CNCc2ccc(-c3cccc(-c4nc5ccccc5[nH]4)c3)cc2)c1,2.91
8,CC(C)N1CCC(NC(=O)N2CCCN(c3ncnc4cc(-c5ccc(Cl)cc5)sc34)CC2)CC1,5.66
9,COc1ccc(NS(=O)(=O)c2ccc(C(=O)Nc3ccc(C(F)(F)F)cc3)cc2)cc1N1CCN(CC2CC2)CC1,2.1
10,CC(C)C[C@H](NC(=O)OC(C)(C)C)C(=O)Nc1ccc(Cc2ccc(NC(=O)[C@H](CC(C)C)NC(=O)OC(C)(C)C)cc2)cc1,0.76
11,O=c1cc(NCCCNCc2ccc(Cl)c(Cl)c2)[nH]c2cc(F)cc(F)c12,3.94
12,Oc1ccc2nc(Nc3ccccc3)nc(NCCc3ccccc3)c2c1,10.7
13,NC1=NC(c2ccccc2)(c2ccccn2)C(=O)N1CCCc1ccccc1 (stereo unspecified),3.33
14,COc1cccc(CCc2cccc(CNC(C)=O)c2)c1,-0
15,O=C(Nc1ccc(Cl)cc1)c1cccc2nc(C(F)(F)F)[nH]c12,21.3
16,COc1ccc(Cl)cc1N1CCN(CCCNC(=O)c2ccc(-c3nc4cnccc4[nH]3)c(Br)c2)CC1,1.44
17,COC(=O)Nc1cc(C(F)(F)F)ccc1N1CCCC(NS(=O)(=O)c2ccc(C(C)(C)C)cc2)C1 (stereo unspecified),1.54
18,O=C(Nc1ccccc1F)N(CCCn1ccnc1)Cc1csc(-c2ccc(CNCc3ccccc3)cc2)n1,5.41
19,Cc1ccccc1C1CCN(C2CCC(NC(=O)/C=C/c3ccccc3C(F)(F)F)CC2)CC1 (stereo unspecified),14.8
20,Oc1ccc(CCNc2nc(NCc3ccc4cc(Cl)ccc4c3)nc(N3CCNCC3)n2)cc1,17.2
21,O=c1cc(NCCCNCc2ccc3c(c2)OC(F)(F)O3)[nH]c2ccccc12,1.45
22,COc1ccc(S(=O)(=O)Nc2cc(C)cc(Br)c2OC)cc1N1CCN(C(=O)C(Cl)(Cl)Cl)CC1,3.15
23,CCC(CC)NCc1c(O)ccc2c(CNC(CC)CC)c(O)ccc12,3.62

row,Compound,IFI [%]
1,CC(C)(C)c1ccc(C(=O)Nc2cccc(Nc3c(C(=O)NCc4cccc(C(F)(F)F)c4)cnc4c(O)cccc34)c2)cc1,3.68
2,O=C(Nc1ccc([N+](=O)[O-])cc1Cl)c1cc2ccccc2cc1O,12.8
3,O=C(/C=C/c1ccc(C(F)(F)F)cc1)NCCCCCN1CCN(C(=O)Nc2ccc(F)c(Cl)c2)CC1,7.92
4,COc1ccccc1CCNc1nc(C)cc(N[C@@H](CC(C)C)C(=O)NCCc2ccccc2)n1,12.5
5,N#Cc1cccc(C(=O)Nc2ccc(-c3ccc(CN4CCCC4)cc3)cc2)c1,5.15
6,C[C@H]1CN(Cc2cccc(-c3cc(CNC(=O)c4cccc(CN5CCN(CCOc6ccccc6)CC5)c4)ccc3F)c2)CCN1,9.09
7,CC1(C)Cc2c(oc3ncn(CCn4cnc5oc6c(c5c4=N)CC(C)(C)SC6)c(=N)c23)CS1,1.44
8,COc1ccc2nccc([C@@H](O)CN3CCC(NC(=O)c4cc5c(F)cc(F)cc5[nH]4)CC3)c2c1,3.55
9,CCCCc1cc(NCC)nc(Nc2cccc(OC)c2)n1,7.04
10,Cc1ccc(Cn2ncc(N3CCCNCC3)c(Cl)c2=O)cc1NC(=O)Nc1ccc(-c2ccccc2)cc1,10.7
11,N#Cc1ccc(CN2CCC(Oc3ccc(NC(=O)c4ccsc4)cc3Cl)C2)cc1 (stereo unspecified),11.9
12,Cc1cccc2nc(-c3cccc(-c4ccc(C(=O)NCc5ccccc5S(C)(=O)=O)cc4)c3)[nH]c12,0.95
13,N#Cc1cncc(-c2nc3c(N4CCC(Cc5ccccc5)CC4)cccc3n2CCNCc2ccccc2)c1,4.17
14,COc1cc([N+](=O)[O-])ccc1NC(=O)Nc1ccc(OC(F)(F)F)cc1,18.4
15,O=C(Nc1cccc(-c2ccc(CN3CCCC3)cc2)c1)c1cccc(F)c1,0
16,CCCCC(CCCC)CN1C(=O)C(c2ccccc2)(c2ccccc2)N=C1N,20.9
17,NC1CCN(CCNCc2cccc(-c3ccc(-c4nc5cc(F)ccc5[nH]4)cc3)c2)C1 (stereo unspecified),1.41
18,FC(F)(F)c1ccc2[nH]c(-c3ccc(-c4ccc(CN5CCN(c6cnccn6)CC5)cc4)s3)nc2c1,8.82
19,COCCN(C(=O)Cc1cccs1)C(C(=O)NCc1ccc(OC)cc1)c1ccc(C(C)C)cc1 (stereo unspecified),1.4
20,FC(F)(F)c1ccc2[nH]c(-c3ccc(-c4cccc(CNCCc5cccnc5)c4)s3)nc2c1,8.24
21,CC(C)NCc1cccc(-c2cccc(NC(=O)c3cccc(Cl)c3)c2)c1,3.85
22,c1ccc(CN2CCN(CCCCNc3c4ccccc4nc4ccccc34)CC2)cc1,3.1
23,O=C(/C=C/c1cccc(Cl)c1)NCCCCCN1CCC(c2c[nH]c3ccccc23)CC1,6.76

row,Compound,IFI [%]
1,COc1ccc(-c2csc3ncnc(Cl)c23)cc1,2.1
2,CCN(CC)CCN(Cc1ccc(-c2ccc(C(F)(F)F)cc2)cc1)C(=O)Cn1c(CCc2cc(F)cc(F)c2)nc(=O)c2ccccc21,8.33
3,COCCCNc1sc(S(=O)(=O)c2ccccc2)nc1S(=O)(=O)c1ccc(Cl)cc1,0
4,COc1ccc(C(C)Nc2nc(N)c3cc(OC)c(OC)cc3n2)cc1 (stereo unspecified),1.56
5,CCCCCCOc1ccccc1C(=O)NCCOc1ccc(Cl)cc1,3.73
6,Nc1nc(N)c2c(ccc3c2ccn3Cc2ccc(OCc3ccccc3)cc2)n1,0.76
7,CCOC(=O)c1cc(=O)c2ccc(OCC#N)cc2o1,1.49
8,COc1ccc2nccc([C@@H](O)CN3CCC(NC(=O)C(=Cc4ccc(C#N)cc4)c4ccc(-c5ccccc5)cc4)CC3)c2c1,0
9,O=C(C=Cc1ccc(Cl)c(Cl)c1)NCCCCCN1CCC(CCCNC(=O)c2sc3ccccc3c2Cl)CC1,11.4
10,O=C(CNc1ccncc1)c1c[nH]c2ccccc12,1.6
11,CCOc1ccc2[nH]c(C)cc(=NN=Cc3ccccc3Cl)c2c1,3.68
12,CC(C)CNCc1cccc(-c2ccc(CNc3ccc(C(=O)c4ccccc4)cc3)cc2)c1,3.57
13,O=c1nc(C=Cc2ccc(Br)cc2)oc2ccccc12,7.62
14,Cc1cc(Nc2cccc(C(F)(F)F)c2)nc2ccc(NC(=O)c3ccc(=O)[nH]c3)cc12,2.6
15,Cn1ccnc1Sc1ncccc1[N+](=O)[O-],0
16,Nc1c(Cl)cc(C(O)CNCCCCCOCCc2ccc3occc3c2)cc1Cl (stereo unspecified),2.54
17,CC(C)[C@H](NC(=O)c1ccc(O)c(-c2ccc(Cl)c(Cl)c2)c1)C(=O)NCCN1CCCCC1,2.96
18,CCN1CCC(N(Cc2ccc(-c3ccc(C(F)(F)F)cc3)cc2)C(=O)CCCCn2c(CCc3cccc(F)c3F)nc(=O)c3ccccc32)CC1,12
19,O=C(NCC1CCN(Cc2ccsc2)C1)c1cc(-c2cccc(C(F)(F)F)c2)cs1 (stereo unspecified),9.43
20,COc1cc(NC(=O)/C=C/c2ccccc2OC(F)(F)F)cc(OCCN2CCC(O)(c3ccccc3)CC2)c1,6.57
21,CN(CC1CCC(NC(=O)/C=C/c2ccc(Cl)c(Cl)c2)CC1)C1CCC(c2c[nH]c3ccccc23)CC1 (stereo unspecified),6.21
22,COc1ccc2cc(C(c3nnnn3CC3CCCO3)N3CCc4ccccc43)c(=O)[nH]c2c1 (stereo unspecified),2.48
